Laboratory results reported in publication PMC10405735.
Results are given in words; binding and its absence hold for the method and conditions named. Some results given as binding are weak or reduced against the parent protein; the word gives no strength. For some of these results: Tags and fused reporters may be left off the sequences shown.

Protein sequences, listed by entry. Tags and fused reporters are not part of them. Lines headed by an entry give the natural chain unless they say otherwise; changes in a name come on top.
UniProt O15218: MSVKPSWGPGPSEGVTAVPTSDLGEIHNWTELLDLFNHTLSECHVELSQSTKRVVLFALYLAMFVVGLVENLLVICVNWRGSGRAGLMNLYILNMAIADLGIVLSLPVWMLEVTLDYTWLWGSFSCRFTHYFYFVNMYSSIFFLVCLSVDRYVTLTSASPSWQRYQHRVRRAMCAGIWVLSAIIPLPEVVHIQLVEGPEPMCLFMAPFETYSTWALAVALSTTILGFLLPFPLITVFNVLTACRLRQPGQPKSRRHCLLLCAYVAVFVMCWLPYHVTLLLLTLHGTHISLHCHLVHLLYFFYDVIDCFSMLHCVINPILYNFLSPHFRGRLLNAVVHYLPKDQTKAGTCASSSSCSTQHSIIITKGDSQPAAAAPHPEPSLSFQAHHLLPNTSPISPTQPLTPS
UniProt P25106: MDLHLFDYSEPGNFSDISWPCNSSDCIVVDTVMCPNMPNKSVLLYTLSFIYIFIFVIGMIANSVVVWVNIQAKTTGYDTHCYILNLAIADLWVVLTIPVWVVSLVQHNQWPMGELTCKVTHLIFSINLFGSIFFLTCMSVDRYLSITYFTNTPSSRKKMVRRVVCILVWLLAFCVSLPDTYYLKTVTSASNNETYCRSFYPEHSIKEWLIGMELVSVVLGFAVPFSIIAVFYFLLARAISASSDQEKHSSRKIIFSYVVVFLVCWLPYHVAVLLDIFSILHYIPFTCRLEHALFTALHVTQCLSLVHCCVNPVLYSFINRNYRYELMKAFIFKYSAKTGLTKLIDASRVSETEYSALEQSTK

T1: murine GPR182 (mGPR182), expressed from mGPR182 T2A GFP in 300.19 pre-B cells (mouse) (UniProt P43142)
T1 sequence: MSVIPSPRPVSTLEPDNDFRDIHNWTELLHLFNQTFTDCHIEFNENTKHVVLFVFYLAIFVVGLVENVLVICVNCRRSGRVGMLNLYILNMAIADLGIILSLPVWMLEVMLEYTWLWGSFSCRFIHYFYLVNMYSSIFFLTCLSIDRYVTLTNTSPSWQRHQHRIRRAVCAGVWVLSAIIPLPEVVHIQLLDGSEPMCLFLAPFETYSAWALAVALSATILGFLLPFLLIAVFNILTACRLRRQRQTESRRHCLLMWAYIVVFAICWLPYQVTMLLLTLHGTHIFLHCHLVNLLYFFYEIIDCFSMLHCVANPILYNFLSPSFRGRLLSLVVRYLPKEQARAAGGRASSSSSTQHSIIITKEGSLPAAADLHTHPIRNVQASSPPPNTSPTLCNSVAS

T2: hACKR4 (T2A GFP) in 300.19 pre-B cells (human) (UniProt Q9NPB9)
T2 sequence: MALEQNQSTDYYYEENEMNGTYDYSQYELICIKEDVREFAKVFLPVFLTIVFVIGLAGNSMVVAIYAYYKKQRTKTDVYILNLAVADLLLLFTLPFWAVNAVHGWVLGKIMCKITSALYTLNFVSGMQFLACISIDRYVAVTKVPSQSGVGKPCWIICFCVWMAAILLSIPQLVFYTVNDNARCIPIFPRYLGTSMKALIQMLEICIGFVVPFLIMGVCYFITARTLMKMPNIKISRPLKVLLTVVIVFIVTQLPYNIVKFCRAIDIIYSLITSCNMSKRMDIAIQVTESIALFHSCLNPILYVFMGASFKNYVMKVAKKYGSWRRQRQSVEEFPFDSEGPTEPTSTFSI


How the values were obtained:
[1] = target: T1, murine GPR182 (mGPR182), expressed from mGPR182 T2A GFP in 300.19 pre-B cells (mouse); test: flow cytometry on cells; uptake: 300.19 pre-B cells stably expressing the receptor (T2A GFP), together with parental cells, incubated with 20, 100 or 200 nM fluorescently labelled chemokine at 37°C for 45 min; MFI of parental cells subtracted; only the binder purified
[2] = target: human GPR182 (hGPR182), expressed from hGPR182 T2A GFP in 300.19 pre-B cells (human) (UniProt O15218); test: as above
[3] = target: T1, murine GPR182 (mGPR182), expressed from mGPR182 T2A GFP in 300.19 pre-B cells (mouse); test: flow cytometry on cells; binding: 300.19 pre-B cells stably expressing the receptor (T2A GFP) incubated with 100 or 200 nM fluorescently labelled chemokine at 4°C for 45 min; MFI of parental cells subtracted; only the binder purified
[4] = target: hACKR3 (T2A GFP) in 300.19 pre-B cells (human) (UniProt P25106); test: as above
[5] = target: hACKR3 (T2A GFP) in 300.19 pre-B cells (human) (UniProt P25106); test: flow cytometry on cells; uptake: 300.19 pre-B cells stably expressing the receptor (T2A GFP), together with parental cells, incubated with 20, 100 or 200 nM fluorescently labelled chemokine at 37°C for 45 min; MFI of parental cells subtracted; only the binder purified
[6] = target: T1, murine GPR182 (mGPR182), expressed from mGPR182 T2A GFP in 300.19 pre-B cells (mouse); test: flow cytometry on cells; competition binding at 4°C: 300.19 cells expressing mGPR182 or hGPR182 with 3 nM fluorescent chemokine and increasing concentrations of its unlabeled counterpart, 45 min; only the binder purified
[7] = target: T1, murine GPR182 (mGPR182), expressed from mGPR182 T2A GFP in 300.19 pre-B cells (mouse); test: flow cytometry on cells; competition scavenging at 37°C: 300.19 cells expressing mGPR182 or hGPR182 with 3 nM fluorescent chemokine and increasing concentrations of its unlabeled counterpart, 45 min; only the binder purified
[8] = target: T2, hACKR4 (T2A GFP) in 300.19 pre-B cells (human); test: flow cytometry on cells; binding: 300.19 pre-B cells stably expressing the receptor (T2A GFP) incubated with 100 or 200 nM fluorescently labelled chemokine at 4°C for 45 min; MFI of parental cells subtracted; only the binder purified
[9] = target: human GPR182 (hGPR182), expressed from hGPR182 T2A GFP in 300.19 pre-B cells (human) (UniProt O15218); test: as above
[10] = target: T2, hACKR4 (T2A GFP) in 300.19 pre-B cells (human); test: flow cytometry on cells; uptake: 300.19 pre-B cells stably expressing the receptor (T2A GFP), together with parental cells, incubated with 20, 100 or 200 nM fluorescently labelled chemokine at 37°C for 45 min; MFI of parental cells subtracted; only the binder purified

Row | Binder | binding [1] | binding [2] | binding [3] | binding [4] | binding [5] | binding [6] | binding [7] | binding [8] | binding [9] | binding [10]
1 | hCXCL11, fluorescently labelled (ligand, UniProt O14625 22-94, fluorescent label (AF647 or Dy649), site not stated) FPMFKRGRCLCIGPGVKAVKVADIEKASIMYPSNNCDKIEVIITLKENKGQRCLNPKSKQARLIIKKVERKNF | binds | binds | binds | binds | binds |  |  |  |  | 
2 | mCCL19, fluorescently labelled (ligand, UniProt O70460 26-108, fluorescent label (AF647 or Dy649), site not stated) GANDAEDCCLSVTQRPIPGNIVKAFRYLLNEDGCRVPAVVFTTLRGYQLCAPPDQPWVDRIIRRLKKSSAKNKGNSTRRSPVS | binds | no binding (tested: 200 nM) |  |  |  | binds | binds |  |  | 

Continued, values first:

Row | binding [1] | binding [2] | binding [3] | binding [4] | binding [5] | binding [6] | binding [7] | binding [8] | binding [9] | binding [10] | Binder
3 | binds | binds |  |  |  |  |  |  |  |  | mCXCL13, fluorescently labelled (ligand, UniProt O55038 22-109, fluorescent label (AF647 or Dy649), site not stated) ILEAHYTNLKCRCSGVISTVVGLNIIDRIQVTPPGNGCPKTEVVIWTKMKKVICVNPRAKWLQRLLRHVQSKSLSSTPQAPVSKRRAA
4 | binds | binds | binds |  |  |  |  | binds | binds | binds | mCCL25, fluorescently labelled (ligand, UniProt O35903 24-144, fluorescent label (AF647 or Dy649), site not stated) QGAFEDCCLGYQHRIKWNVLRHARNYHQQEVSGSCNLRAVRFYFRQKVVCGNPEDMNVKRAMRILTARKRLVHWKSASDSQTERKKSNHMKSKVENPNSTSVRSATLGHPRMVMMPRKTNN
5 | binds weakly | binds weakly |  |  |  |  |  |  |  |  | mCXCL1, fluorescently labelled (ligand, UniProt P12850 25-96, fluorescent label (AF647 or Dy649), site not stated) APIANELRCQCLQTMAGIHLKNIQSLKVLPSGPHCTQTEVIATLKNGREACLDPEAPLVQKIVQKMLKGVPK
